# From the antibiotic and cytotoxicity screens of Wong et al. (2023)
# The list shows a part of the results.
# Experiments:
# HSkMC = human skeletal muscle cells; experiment: cytotoxicity call (relative viability < 0.9); conditions: 10 µM
# S. aureus RN4220 = experiment: growth inhibition call (relative growth <= 0.2); conditions: 50 µM
SMILES,cytotoxicity call (HSkMC),growth inhibition call (S. aureus RN4220)
Cc1ccc(S(=O)(=O)N(C)C[C@H]2Oc3ccc(NS(=O)(=O)c4cccs4)cc3CC(=O)N([C@H](C)CO)C[C@H]2C)cc1,inactive,inactive
C[C@H]1CN([C@@H](C)CO)S(=O)(=O)c2ccc(-c3cccnc3)cc2O[C@@H]1CN(C)C(=O)NC1CCCC1,inactive,inactive
COc1ccc2c3c(n(c2c1)C)[C@H](CO)N(C[C@]13CN(CC2CCOCC2)C1)C(=O)c1ccc(cc1)F,inactive,inactive
NC(=O)[C@H]1C[C@@H]2C=C[C@H]1C2,inactive,inactive
C[C@@H]1CCCCO[C@@H](CN(C)Cc2ccc3c(c2)OCO3)[C@@H](C)CN([C@H](C)CO)C(=O)c2cc(NC(=O)Nc3ccc(F)cc3)ccc2O1,inactive,inactive
Cc1noc(C)c1S(=O)(=O)Nc1ccc2c(c1)C(=O)N([C@@H](C)CO)C[C@H](C)[C@@H](CN(C)Cc1ccc(Cl)c(Cl)c1)OCCCC[C@H](C)O2,inactive,inactive
C[C@@H]1CN([C@H](C)CO)C(=O)c2cc(NC(=O)C3CCCCC3)ccc2O[C@@H](C)CCCCO[C@@H]1CN(C)Cc1ccc(C(=O)O)cc1,inactive,inactive
C[C@@H]1CCCCO[C@H](CN(C)C(=O)Nc2ccccc2)[C@@H](C)CN([C@@H](C)CO)C(=O)c2cc(NC(=O)c3ccccc3)ccc2O1,inactive,inactive
C[C@H](CO)N1C[C@H](C)[C@H](CN(C)S(=O)(=O)c2cn(C)cn2)Oc2ncc(C#CCN(C)C)cc2C1=O,inactive,inactive
O=C(C[C@H]1C[C@H]2c3cc(NC(=O)Nc4ccc(C(F)(F)F)cc4)ccc3O[C@H]2[C@@H](CO)O1)NCc1cc(F)ccc1F,inactive,inactive
CO[C@@H](CN(C)S(=O)(=O)c1cccc(Cl)c1)[C@H](C)CN([C@@H](C)CO)S(=O)(=O)c1ccc(Cl)cc1,inactive,inactive
C[C@H]1CNC(=CC(=O)c2ccccc2)C(=O)N1,inactive,inactive
COc1cccc(C(=O)Nc2ccc3c(c2)C(=O)N(C)[C@@H]2CC[C@H](CC(=O)NCCCN4CCOCC4)O[C@@H]2CO3)c1,inactive,inactive
C[C@H]1CN([C@@H](C)CO)C(=O)c2cccc(NS(=O)(=O)c3ccc(F)cc3)c2O[C@H]1CN(C)S(C)(=O)=O,inactive,inactive
C[C@H](CO)N1C[C@H](C)[C@H](CN(C)C(=O)Nc2ccc3c(c2)OCO3)Oc2ccc(NC(=O)Nc3cccc4ccccc34)cc2C1=O,inactive,inactive
C=CCN1C(=O)[C@]2(O[C@H](CCO)[C@@H]([Si](C)(C)c3ccc(OC)cc3)[C@@H]2C)c2cc(NC(=O)[C@H](C)O)ccc21,inactive,inactive
Cc1noc(C)c1NC(=O)N(C)C[C@H]1OCCCC[C@@H](C)Oc2ccc(NC(=O)Nc3ccc(C(F)(F)F)cc3)cc2C(=O)N([C@H](C)CO)C[C@@H]1C,inactive,inactive
C[C@H](O)C#Cc1ccc2c(c1)O[C@@H](CN(C)C(=O)Nc1ccccc1)[C@@H](C)CN([C@@H](C)CO)S2(=O)=O,inactive,inactive
C[C@H]1CN([C@@H](C)CO)C(=O)c2cccc(NS(=O)(=O)c3ccc(F)cc3)c2O[C@@H]1CN(C)Cc1ccc(-c2ccccc2)cc1,inactive,inactive
C[C@@H]1CN([C@H](C)CO)C(=O)c2cc(NC(=O)Cc3ccccc3)ccc2O[C@@H](C)CCCCO[C@@H]1CN(C)Cc1ccc(Cl)c(Cl)c1,inactive,inactive

SMILES,cytotoxicity call (HSkMC),growth inhibition call (S. aureus RN4220)
C[C@@H]1CCCCO[C@H](CN(C)C(=O)Nc2ccc(C(F)(F)F)cc2)[C@H](C)CN([C@H](C)CO)C(=O)c2cc(NC(=O)Nc3ccccc3)ccc2O1,inactive,inactive
C[C@@H]1CN([C@H](C)CO)C(=O)c2cc(NS(=O)(=O)c3ccccc3)ccc2O[C@H]1CN(C)C(=O)Nc1cccc2ccccc12,inactive,inactive
C[C@H](CO)N1C[C@H](C)[C@H](CN(C)C(=O)CN2CCOCC2)Oc2cc(C#Cc3cccc(F)c3)ccc2S1(=O)=O,inactive,inactive
C[C@H](CO)N1C[C@H](C)[C@H](CN(C)C(=O)c2ccc(N3CCN(C)CC3)cc2)OCc2cnnn2CCCC1=O,inactive,inactive
C[C@@H]1CN([C@H](C)CO)C(=O)Cc2cc(NS(=O)(=O)c3ccc(F)cc3)ccc2O[C@H]1CN(C)C(=O)Nc1cccc2ccccc12,inactive,inactive
CS(=O)(=O)N1CCOC[C@@]2(C1)CN(S(=O)(=O)C1CC1)CCO2,inactive,inactive
Cc1noc(C)c1NC(=O)N(C)C[C@@H]1Oc2ccc(NC(=O)Cn3cnnn3)cc2CC(=O)N([C@H](C)CO)C[C@@H]1C,inactive,inactive
Cc1noc(C)c1NC(=O)Nc1ccc2c(c1)C(=O)N([C@H](C)CO)C[C@H](C)[C@@H](CN(C)S(=O)(=O)c1ccc(Cl)cc1)OCCCC[C@H](C)O2,inactive,inactive
NC(=O)Cn1nnc(-c2ccccc2)n1,inactive,inactive
O=C(O)CN1CCCCC1=O,inactive,inactive
CC(=O)N(C[C@@H](O)CO)c1c(I)c(C(=O)NC[C@@H](O)CO)c(I)c(C(=O)NC[C@@H](O)CO)c1I,inactive,inactive
Cc1noc(C)c1NC(=O)N(C)C[C@H]1Oc2ccc(NC(=O)Nc3cccc4ccccc34)cc2C(=O)N([C@H](C)CO)C[C@@H]1C,inactive,inactive
C[C@@H]1CCCCO[C@H](CN(C)C(=O)NC2CCCCC2)[C@@H](C)CN([C@@H](C)CO)C(=O)c2cc(NC(=O)c3ccncc3)ccc2O1,inactive,inactive
C[C@@H]1CN([C@H](C)CO)C(=O)c2cccc(NC(=O)Nc3ccc(C(F)(F)F)cc3)c2O[C@@H]1CN(C)C(=O)Nc1ccc2c(c1)OCO2,inactive,inactive
C[C@@H]1CN([C@@H](C)CO)C(=O)c2c(c3ccccc3n2C)-c2ccccc2CO[C@H]1CN(C)C(=O)c1ccc(F)cc1,inactive,inactive
CC(C)[Si]1(C(C)C)OCc2cc(-c3ccc(-c4ccc(Cl)c(Cl)c4)o3)nc(-c3ccccc3)c21,inactive,inactive
CC(C)NC(=O)N(C)C[C@@H]1Oc2ncc(-c3ccc(C(=O)N(C)C)cc3)cc2C(=O)N([C@H](C)CO)C[C@H]1C,inactive,inactive
N#Cc1cccc(NCCN2CCNC2=O)n1,inactive,inactive
COc1ccc(S(=O)(=O)N(C)C[C@H]2OCc3cn(nn3)CCCC(=O)N([C@H](C)CO)C[C@H]2C)cc1,inactive,inactive
C[C@@H]1CCCCO[C@H](CN(C)Cc2ccccc2)[C@H](C)CN([C@@H](C)CO)C(=O)c2cc(NC(=O)Nc3ccccc3)ccc2O1,inactive,inactive

SMILES,cytotoxicity call (HSkMC),growth inhibition call (S. aureus RN4220)
C[C@H](CO)N1C[C@H](C)[C@H](CN(C)Cc2ccncc2)Oc2ccc(NS(=O)(=O)c3cn(C)cn3)cc2CC1=O,inactive,inactive
CCCNC(=O)N1C[C@]2(CCN(CC2)S(=O)(=O)c2ccccc2)c2c(n(c3cc(ccc23)OC)C)[C@H]1CO,inactive,inactive
C[C@H]1CCCCO[C@@H](CN(C)Cc2ccc(Cl)c(Cl)c2)[C@@H](C)CN([C@@H](C)CO)C(=O)c2cc(NC(=O)Nc3ccc(C(F)(F)F)cc3)ccc2O1,inactive,inactive
CCS(=O)(=O)N1C[C@]2(CN(C2)C(=O)Nc2ccc(cc2)F)c2c(n(c3cc(ccc23)OC)C)[C@H]1CO,inactive,inactive
C[C@H](CO)N1C[C@H](C)[C@@H](CN(C)C(=O)Nc2ccc(C(F)(F)F)cc2)Oc2ccc(NC(=O)Cc3ccccc3)cc2C1=O,inactive,inactive
CN(C)CCCNC(=O)C[C@@H]1CC[C@H]2[C@@H](COC[C@@H](O)CN2S(=O)(=O)c2ccc(F)cc2)O1,inactive,inactive
O=C(C[C@@H]1CC[C@H](NC(=O)CN2CCOCC2)[C@H](CO)O1)NCCc1ccccc1,inactive,inactive
C[C@@H]1CCCCO[C@@H](CN(C)S(=O)(=O)c2cccs2)[C@H](C)CN([C@@H](C)CO)C(=O)c2cc(NC(=O)Nc3ccccc3)ccc2O1,inactive,inactive
C[C@H]1CN([C@@H](C)CO)C(=O)c2cc(NC(=O)Nc3ccc(C(F)(F)F)cc3)ccc2O[C@@H]1CN(C)C(=O)Nc1ccc(F)cc1,inactive,inactive
Cc1ccc(S(=O)(=O)Nc2cccc3c2O[C@H](CN(C)Cc2ccc(Oc4ccccc4)cc2)[C@@H](C)CN([C@@H](C)CO)C3=O)cc1,inactive,inactive
COc1ccc(S(=O)(=O)Nc2ccc3c(c2)C(=O)N([C@H](C)CO)C[C@@H](C)[C@H](CN(C)Cc2ccc(C(F)(F)F)cc2)OCCCC[C@H](C)O3)cc1,inactive,inactive
C[C@H](CO)N1C[C@H](C)[C@H](CN(C)S(=O)(=O)c2cn(C)cn2)Oc2ccc(NS(=O)(=O)c3cn(C)cn3)cc2CC1=O,inactive,inactive
COc1ccc(NC(=O)N2C[C@@H](O)COC[C@@H]3O[C@H](CC(=O)NCc4ccccc4OC)CC[C@H]32)cc1,inactive,inactive
C[C@@H]1CCCCO[C@@H](CN(C)C(=O)Cc2ccccc2)[C@H](C)CN([C@@H](C)CO)C(=O)c2cc(NS(=O)(=O)c3cccs3)ccc2O1,inactive,inactive
CCNc1nc(OCCO)nc(N(C)C)n1,inactive,inactive
C[C@@H]1CCCCO[C@@H](CN(C)C(=O)C2CCCCC2)[C@@H](C)CN([C@@H](C)CO)C(=O)c2cc(NC(=O)Nc3ccc(F)cc3)ccc2O1,inactive,inactive
C(=N\c1ccccc1)/c1ccccc1,inactive,inactive
C[C@@H]1CN([C@H](C)CO)C(=O)c2cc(NS(=O)(=O)c3ccc(Cl)cc3)ccc2O[C@@H](C)CCCCO[C@@H]1CN(C)S(=O)(=O)c1cccs1,inactive,inactive
